From US6544989B2, “Benzazoles: benzoxazole, benzthiazole and benzimidazole derivatives” (Syngenta Limited, priority 1998, dated 2003)

How the values were obtained:
Settings in all cases: 500 ppm by weight; mortality assessed usually between three and five days after treatment
Heliothis virescens = tested on: Heliothis virescens
Tetranychus urticae = tested on: Tetranychus urticae
Musca domestica = tested on: Musca domestica
Spodoptera exigua = assay: Pesticidal test, Spodoptera exigua mortality
Protocol: The test procedure adopted with regard to each pest, except nematodes, was essentially the same and composed supporting a number of the pests on a medium which was usually a substrate, a host plant or a foodstuff on which the pests feed, and treating either or both the medium and the pests with a composition. Pest mortality was assessed usually between three and five days after treatment Knockdown of housefly (Musca domestica) was assessed 15 minutes after treatment

Myzus persicae = assay: Pesticidal test, Myzus persicae mortality

Cc1nsc(NC(=O)Cc2ccc3nc(CC(C)(C)C)oc3c2)c1Cl [15(A23)]
HELIVI = Heliothis virescens, grading of mortality (score) (Heliothis virescens): 0 (0 indicates less than 40% mortality)
TETRUR = Tetranychus urticae, grading of mortality (score) (Tetranychus urticae): 9 (9 indicates 80-100% mortality)
MUSCDO AK = Musca domestica (kill), grading of mortality (score) (Musca domestica): 0 (0 indicates less than 40% mortality)
LAPHEG = Spodoptera exigua, grading of mortality (score) (Spodoptera exigua): 5 (5 indicates 40-79% mortality)
MYZUPE = Myzus persicae, grading of mortality (score) (Myzus persicae): 5 (5 indicates 40-79% mortality)

Cc1nsc(N(C)C(=O)Cc2ccc3oc(CC(C)(C)C)nc3c2)c1Cl [15(B3)]
HELIVI = Heliothis virescens, grading of mortality (score) (Heliothis virescens): 0 (0 indicates less than 40% mortality)
TETRUR = Tetranychus urticae, grading of mortality (score) (Tetranychus urticae): 9 (9 indicates 80-100% mortality)
MUSCDO AK = Musca domestica (kill), grading of mortality (score) (Musca domestica): 0 (0 indicates less than 40% mortality)
LAPHEG = Spodoptera exigua, grading of mortality (score) (Spodoptera exigua): 0 (0 indicates less than 40% mortality)
MYZUPE = Myzus persicae, grading of mortality (score) (Myzus persicae): 5 (5 indicates 40-79% mortality)

CCN(C(=O)Cc1ccc2oc(CC(C)(C)C)nc2c1)c1snc(C)c1Cl [15(C3)]
HELIVI = Heliothis virescens, grading of mortality (score) (Heliothis virescens): 0 (0 indicates less than 40% mortality)
TETRUR = Tetranychus urticae, grading of mortality (score) (Tetranychus urticae): 9 (9 indicates 80-100% mortality)
MUSCDO AK = Musca domestica (kill), grading of mortality (score) (Musca domestica): 0 (0 indicates less than 40% mortality)
LAPHEG = Spodoptera exigua, grading of mortality (score) (Spodoptera exigua): 9 (9 indicates 80-100% mortality)
MYZUPE = Myzus persicae, grading of mortality (score) (Myzus persicae): 9 (9 indicates 80-100% mortality)

CCCN(C(=O)Cc1ccc2oc(CC(C)(C)C)nc2c1)c1snc(C)c1Cl [15(D3)]
HELIVI = Heliothis virescens, grading of mortality (score) (Heliothis virescens): 5 (5 indicates 40-79% mortality)
TETRUR = Tetranychus urticae, grading of mortality (score) (Tetranychus urticae): 9 (9 indicates 80-100% mortality)
MUSCDO AK = Musca domestica (kill), grading of mortality (score) (Musca domestica): 0 (0 indicates less than 40% mortality)
LAPHEG = Spodoptera exigua, grading of mortality (score) (Spodoptera exigua): 5 (5 indicates 40-79% mortality)
MYZUPE = Myzus persicae, grading of mortality (score) (Myzus persicae): 9 (9 indicates 80-100% mortality)

C=CCN(C(=O)Cc1ccc2oc(CC(C)(C)C)nc2c1)c1snc(C)c1Cl [15(E3)]
HELIVI = Heliothis virescens, grading of mortality (score) (Heliothis virescens): 9 (9 indicates 80-100% mortality)
TETRUR = Tetranychus urticae, grading of mortality (score) (Tetranychus urticae): 9 (9 indicates 80-100% mortality)
MUSCDO AK = Musca domestica (kill), grading of mortality (score) (Musca domestica): 0 (0 indicates less than 40% mortality)
LAPHEG = Spodoptera exigua, grading of mortality (score) (Spodoptera exigua): 5 (5 indicates 40-79% mortality)
MYZUPE = Myzus persicae, grading of mortality (score) (Myzus persicae): 9 (9 indicates 80-100% mortality)

C#CCN(C(=O)Cc1ccc2oc(CC(C)(C)C)nc2c1)c1snc(C)c1Cl [15(F3)]
HELIVI = Heliothis virescens, grading of mortality (score) (Heliothis virescens): 9 (9 indicates 80-100% mortality)
TETRUR = Tetranychus urticae, grading of mortality (score) (Tetranychus urticae): 9 (9 indicates 80-100% mortality)
MUSCDO AK = Musca domestica (kill), grading of mortality (score) (Musca domestica): 0 (0 indicates less than 40% mortality)
LAPHEG = Spodoptera exigua, grading of mortality (score) (Spodoptera exigua): 9 (9 indicates 80-100% mortality)
MYZUPE = Myzus persicae, grading of mortality (score) (Myzus persicae): 9 (9 indicates 80-100% mortality)

COCN(C(=O)Cc1ccc2oc(CC(C)(C)C)nc2c1)c1snc(C)c1Cl [15(K3)]
HELIVI = Heliothis virescens, grading of mortality (score) (Heliothis virescens): 5 (5 indicates 40-79% mortality)
TETRUR = Tetranychus urticae, grading of mortality (score) (Tetranychus urticae): 9 (9 indicates 80-100% mortality)
MUSCDO AK = Musca domestica (kill), grading of mortality (score) (Musca domestica): 0 (0 indicates less than 40% mortality)
LAPHEG = Spodoptera exigua, grading of mortality (score) (Spodoptera exigua): 5 (5 indicates 40-79% mortality)
MYZUPE = Myzus persicae, grading of mortality (score) (Myzus persicae): 9 (9 indicates 80-100% mortality)

CCOCN(C(=O)Cc1ccc2oc(CC(C)(C)C)nc2c1)c1snc(C)c1Cl [15(L3)]
HELIVI = Heliothis virescens, grading of mortality (score) (Heliothis virescens): 9 (9 indicates 80-100% mortality)
TETRUR = Tetranychus urticae, grading of mortality (score) (Tetranychus urticae): 9 (9 indicates 80-100% mortality)
MUSCDO AK = Musca domestica (kill), grading of mortality (score) (Musca domestica): 9 (9 indicates 80-100% mortality)
LAPHEG = Spodoptera exigua, grading of mortality (score) (Spodoptera exigua): 5 (5 indicates 40-79% mortality)
MYZUPE = Myzus persicae, grading of mortality (score) (Myzus persicae): 9 (9 indicates 80-100% mortality)

COCCOCN(C(=O)Cc1ccc2oc(CC(C)(C)C)nc2c1)c1snc(C)c1Cl [15(M3)]
HELIVI = Heliothis virescens, grading of mortality (score) (Heliothis virescens): 0 (0 indicates less than 40% mortality)
TETRUR = Tetranychus urticae, grading of mortality (score) (Tetranychus urticae): 9 (9 indicates 80-100% mortality)
MUSCDO AK = Musca domestica (kill), grading of mortality (score) (Musca domestica): 0 (0 indicates less than 40% mortality)
LAPHEG = Spodoptera exigua, grading of mortality (score) (Spodoptera exigua): 5 (5 indicates 40-79% mortality)
MYZUPE = Myzus persicae, grading of mortality (score) (Myzus persicae): 9 (9 indicates 80-100% mortality)

Cc1nsc(NC(=S)Cc2ccc3oc(CC(C)(C)C)nc3c2)c1Cl [15(V3)]
HELIVI = Heliothis virescens, grading of mortality (score) (Heliothis virescens): 0 (0 indicates less than 40% mortality)
TETRUR = Tetranychus urticae, grading of mortality (score) (Tetranychus urticae): 9 (9 indicates 80-100% mortality)
MUSCDO AK = Musca domestica (kill), grading of mortality (score) (Musca domestica): 0 (0 indicates less than 40% mortality)
LAPHEG = Spodoptera exigua, grading of mortality (score) (Spodoptera exigua): 0 (0 indicates less than 40% mortality)
MYZUPE = Myzus persicae, grading of mortality (score) (Myzus persicae): 5 (5 indicates 40-79% mortality)

Cc1nsc(NC(=O)Cc2ccc3oc(C4CCCC4)nc3c2)c1Cl [28(A3)]
HELIVI = Heliothis virescens, grading of mortality (score) (Heliothis virescens): 9 (9 indicates 80-100% mortality)
TETRUR = Tetranychus urticae, grading of mortality (score) (Tetranychus urticae): 9 (9 indicates 80-100% mortality)
MUSCDO AK = Musca domestica (kill), grading of mortality (score) (Musca domestica): 9 (9 indicates 80-100% mortality)
LAPHEG = Spodoptera exigua, grading of mortality (score) (Spodoptera exigua): 5 (5 indicates 40-79% mortality)
MYZUPE = Myzus persicae, grading of mortality (score) (Myzus persicae): 9 (9 indicates 80-100% mortality)

Cc1nsc(NC(=O)Cc2ccc3oc(CC4CC4)nc3c2)c1Cl [41(A3)]
HELIVI = Heliothis virescens, grading of mortality (score) (Heliothis virescens): 5 (5 indicates 40-79% mortality)
TETRUR = Tetranychus urticae, grading of mortality (score) (Tetranychus urticae): 5 (5 indicates 40-79% mortality)
MUSCDO AK = Musca domestica (kill), grading of mortality (score) (Musca domestica): 9 (9 indicates 80-100% mortality)
LAPHEG = Spodoptera exigua, grading of mortality (score) (Spodoptera exigua): 5 (5 indicates 40-79% mortality)
MYZUPE = Myzus persicae, grading of mortality (score) (Myzus persicae): 9 (9 indicates 80-100% mortality)

CC=Cc1nc2cc(CC(=O)Nc3snc(C)c3Cl)ccc2o1 [45(A3)]
HELIVI = Heliothis virescens, grading of mortality (score) (Heliothis virescens): 5 (5 indicates 40-79% mortality)
TETRUR = Tetranychus urticae, grading of mortality (score) (Tetranychus urticae): 5 (5 indicates 40-79% mortality)
MUSCDO AK = Musca domestica (kill), grading of mortality (score) (Musca domestica): 9 (9 indicates 80-100% mortality)
LAPHEG = Spodoptera exigua, grading of mortality (score) (Spodoptera exigua): 9 (9 indicates 80-100% mortality)
MYZUPE = Myzus persicae, grading of mortality (score) (Myzus persicae): 9 (9 indicates 80-100% mortality)

CC(C)=Cc1nc2cc(CC(=O)Nc3snc(C)c3Cl)ccc2o1 [46(A3)]
HELIVI = Heliothis virescens, grading of mortality (score) (Heliothis virescens): 0 (0 indicates less than 40% mortality)
TETRUR = Tetranychus urticae, grading of mortality (score) (Tetranychus urticae): 5 (5 indicates 40-79% mortality)
MUSCDO AK = Musca domestica (kill), grading of mortality (score) (Musca domestica): 5 (5 indicates 40-79% mortality)
LAPHEG = Spodoptera exigua, grading of mortality (score) (Spodoptera exigua): 5 (5 indicates 40-79% mortality)
MYZUPE = Myzus persicae, grading of mortality (score) (Myzus persicae): 9 (9 indicates 80-100% mortality)

CC=C(C)c1nc2cc(CC(=O)Nc3snc(C)c3Cl)ccc2o1 [47(A3)]
HELIVI = Heliothis virescens, grading of mortality (score) (Heliothis virescens): 0 (0 indicates less than 40% mortality)
TETRUR = Tetranychus urticae, grading of mortality (score) (Tetranychus urticae): 0 (0 indicates less than 40% mortality)
MUSCDO AK = Musca domestica (kill), grading of mortality (score) (Musca domestica): 0 (0 indicates less than 40% mortality)
LAPHEG = Spodoptera exigua, grading of mortality (score) (Spodoptera exigua): 0 (0 indicates less than 40% mortality)
MYZUPE = Myzus persicae, grading of mortality (score) (Myzus persicae): 9 (9 indicates 80-100% mortality)

Cc1nsc(NC(=O)Cc2ccc3oc(CF)nc3c2)c1Cl [73(A3)]
HELIVI = Heliothis virescens, grading of mortality (score) (Heliothis virescens): 5 (5 indicates 40-79% mortality)
TETRUR = Tetranychus urticae, grading of mortality (score) (Tetranychus urticae): 0 (0 indicates less than 40% mortality)
MUSCDO AK = Musca domestica (kill), grading of mortality (score) (Musca domestica): 0 (0 indicates less than 40% mortality)
LAPHEG = Spodoptera exigua, grading of mortality (score) (Spodoptera exigua): 0 (0 indicates less than 40% mortality)
MYZUPE = Myzus persicae, grading of mortality (score) (Myzus persicae): 9 (9 indicates 80-100% mortality)

Cc1nsc(NC(=O)Cc2ccc3oc(C(C)(C)CCl)nc3c2)c1Cl [98(A3)]
HELIVI = Heliothis virescens, grading of mortality (score) (Heliothis virescens): 5 (5 indicates 40-79% mortality)
TETRUR = Tetranychus urticae, grading of mortality (score) (Tetranychus urticae): 9 (9 indicates 80-100% mortality)
MUSCDO AK = Musca domestica (kill), grading of mortality (score) (Musca domestica): 0 (0 indicates less than 40% mortality)
LAPHEG = Spodoptera exigua, grading of mortality (score) (Spodoptera exigua): 5 (5 indicates 40-79% mortality)
MYZUPE = Myzus persicae, grading of mortality (score) (Myzus persicae): 9 (9 indicates 80-100% mortality)

Cc1nsc(NC(=O)Cc2ccc3oc(COc4ccccc4)nc3c2)c1Cl [140(A3)]
HELIVI = Heliothis virescens, grading of mortality (score) (Heliothis virescens): 0 (0 indicates less than 40% mortality)
TETRUR = Tetranychus urticae, grading of mortality (score) (Tetranychus urticae): 0 (0 indicates less than 40% mortality)
MUSCDO AK = Musca domestica (kill), grading of mortality (score) (Musca domestica): 0 (0 indicates less than 40% mortality)
LAPHEG = Spodoptera exigua, grading of mortality (score) (Spodoptera exigua): 0 (0 indicates less than 40% mortality)
MYZUPE = Myzus persicae, grading of mortality (score) (Myzus persicae): 0 (0 indicates less than 40% mortality)

CSCCc1nc2cc(CC(=O)Nc3snc(C)c3Cl)ccc2o1 [172(A3)]
HELIVI = Heliothis virescens, grading of mortality (score) (Heliothis virescens): 5 (5 indicates 40-79% mortality)
TETRUR = Tetranychus urticae, grading of mortality (score) (Tetranychus urticae): 9 (9 indicates 80-100% mortality)
MUSCDO AK = Musca domestica (kill), grading of mortality (score) (Musca domestica): 9 (9 indicates 80-100% mortality)
LAPHEG = Spodoptera exigua, grading of mortality (score) (Spodoptera exigua): 5 (5 indicates 40-79% mortality)
MYZUPE = Myzus persicae, grading of mortality (score) (Myzus persicae): 9 (9 indicates 80-100% mortality)

Cc1nsc(NC(=O)Cc2ccc3oc(Cl)nc3c2)c1Cl [174(A3)]
HELIVI = Heliothis virescens, grading of mortality (score) (Heliothis virescens): 0 (0 indicates less than 40% mortality)
TETRUR = Tetranychus urticae, grading of mortality (score) (Tetranychus urticae): 0 (0 indicates less than 40% mortality)
MUSCDO AK = Musca domestica (kill), grading of mortality (score) (Musca domestica): 0 (0 indicates less than 40% mortality)
LAPHEG = Spodoptera exigua, grading of mortality (score) (Spodoptera exigua): 0 (0 indicates less than 40% mortality)
MYZUPE = Myzus persicae, grading of mortality (score) (Myzus persicae): 5 (5 indicates 40-79% mortality)

CCN(C)c1nc2cc(CC(=O)Nc3snc(C)c3Cl)ccc2o1 [180(A3)]
HELIVI = Heliothis virescens, grading of mortality (score) (Heliothis virescens): 0 (0 indicates less than 40% mortality)
TETRUR = Tetranychus urticae, grading of mortality (score) (Tetranychus urticae): 0 (0 indicates less than 40% mortality)
MUSCDO AK = Musca domestica (kill), grading of mortality (score) (Musca domestica): 0 (0 indicates less than 40% mortality)
LAPHEG = Spodoptera exigua, grading of mortality (score) (Spodoptera exigua): 5 (5 indicates 40-79% mortality)
MYZUPE = Myzus persicae, grading of mortality (score) (Myzus persicae): 0 (0 indicates less than 40% mortality)
